{"source": "paper PMC13541613", "note": "This is a selection; strong and weak results do not stand in their true shares. At the low end of the ranking, values are background and their order means little.", "data": [{"target": "ZNF721 DBD1 (UniProt Q8TF20-2)", "assay": "HT-SELEX", "settings": "20 mM HEPES pH 7, 140 mM KCl, 5 mM NaCl, 1 mM K2HPO4, 2 mM MgSO4, 100 uM EGTA, ZnSO4, 0.1% Tween20; room temperature, 1 h; high values mean tight binding; double strand, one strand shown", "values": [{"sequence": "AAACAAACAG", "binding signal (relative 10-mer count)": 0.000688}, {"sequence": "AACCCACCCC", "binding signal (relative 10-mer count)": 0.00596}, {"sequence": "AAAACAGCAC", "binding signal (relative 10-mer count)": 0.000459}, {"sequence": "CCTCCCCCTC", "binding signal (relative 10-mer count)": 0.00807}, {"sequence": "CTGTTTTTTC", "binding signal (relative 10-mer count)": 0.000321}, {"sequence": "CAGGGTTGCC", "binding signal (relative 10-mer count)": 0.000459}, {"sequence": "CCGAAAACAG", "binding signal (relative 10-mer count)": 0.000596}, {"sequence": "ATAAAACAGC", "binding signal (relative 10-mer count)": 0.000413}, {"sequence": "CAGCATATCC", "binding signal (relative 10-mer count)": 0.000459}, {"sequence": "GGGTGGGGGA", "binding signal (relative 10-mer count)": 0.00885}, {"sequence": "AACAAAGCAG", "binding signal (relative 10-mer count)": 0.00055}, {"sequence": "CCAAAAAAAA", "binding signal (relative 10-mer count)": 0.0171}, {"sequence": "AAAACAGGGT", "binding signal (relative 10-mer count)": 0.00055}, {"sequence": "CCCCACCCGC", "binding signal (relative 10-mer count)": 0.00651}, {"sequence": "ACAAAACAGC", "binding signal (relative 10-mer count)": 0.000826}, {"sequence": "ACAAAGCAGT", "binding signal (relative 10-mer count)": 0.000505}, {"sequence": "CACCCCCACC", "binding signal (relative 10-mer count)": 0.0129}, {"sequence": "CGCTGTTTTC", "binding signal (relative 10-mer count)": 0.000367}, {"sequence": "AAGCAGTGTC", "binding signal (relative 10-mer count)": 0.000229}, {"sequence": "CCAAAAACAG", "binding signal (relative 10-mer count)": 0.00055}, {"sequence": "AAAAACAGTG", "binding signal (relative 10-mer count)": 0.000826}, {"sequence": "CCGCCCCCTC", "binding signal (relative 10-mer count)": 0.00573}, {"sequence": "CAGCGTTGCC", "binding signal (relative 10-mer count)": 0.000229}, {"sequence": "CCACCCAGCC", "binding signal (relative 10-mer count)": 0.00294}, {"sequence": "CAGCATCTCC", "binding signal (relative 10-mer count)": 0.000596}, {"sequence": "AATAAAACAG", "binding signal (relative 10-mer count)": 0.000275}, {"sequence": "AAAAACAGAG", "binding signal (relative 10-mer count)": 0.000229}, {"sequence": "AAAAGCTATA", "binding signal (relative 10-mer count)": 0.0882}, {"sequence": "AAAAAACAGT", "binding signal (relative 10-mer count)": 0.000826}, {"sequence": "CCCCCGCTCC", "binding signal (relative 10-mer count)": 0.0033}, {"sequence": "CAAAGCAGTG", "binding signal (relative 10-mer count)": 0.000688}]}, {"target": "ZNF721 DBD2 (UniProt Q8TF20-2)", "assay": "HT-SELEX", "settings": "20 mM HEPES pH 7, 140 mM KCl, 5 mM NaCl, 1 mM K2HPO4, 2 mM MgSO4, 100 uM EGTA, ZnSO4, 0.1% Tween20; room temperature, 1 h; high values mean tight binding; double strand, one strand shown", "values": [{"sequence": "CACCCCACCC", "binding signal (relative 10-mer count)": 0.0036}, {"sequence": "AACCCACCCC", "binding signal (relative 10-mer count)": 0.000719}, {"sequence": "CTCCGCCCCC", "binding signal (relative 10-mer count)": 0.000719}, {"sequence": "CAAAAAGCAG", "binding signal (relative 10-mer count)": 0.172}, {"sequence": "AACCCCCACC", "binding signal (relative 10-mer count)": 0.000479}, {"sequence": "CCCGCACCCC", "binding signal (relative 10-mer count)": 0.000959}, {"sequence": "CCGCCACCAC", "binding signal (relative 10-mer count)": 0.0036}, {"sequence": "CCCCCCCACA", "binding signal (relative 10-mer count)": 0.00743}, {"sequence": "AAAAGCTATA", "binding signal (relative 10-mer count)": 0.000599}, {"sequence": "CCCCCGCTCC", "binding signal (relative 10-mer count)": 0.00144}]}]}
